Data published in PMC3103547.
No constants are given. Whether binding was seen depends on the method and setting. Some entries that bind do so weakly or less than the wild type. Sequences can lack the tags named with a protein.

Tests used:
Experiment in all cases: native gel or EMSA; HEK cells 48 h after transfection, scraped into ice cold native gel buffer (0.62 mM Tris HCl pH 6.8, 10% glycerol), sonicated briefly; 7.5% native polyacrylamide gel, Western blot with anti-V5; upper region dimer, lower region monomer
[1] = target: Spermine synthase (SMS), wild type, V5-tagged (human) (UniProt P52788)
[2] = target: Spermine synthase (SMS) I150T, V5-tagged (human) (UniProt P52788)
[3] = target: Spermine synthase (SMS) I150D, V5-tagged (human) (UniProt P52788)
[4] = target: Spermine synthase (SMS) I150E, V5-tagged (human) (UniProt P52788)
[5] = target: Spermine synthase (SMS) I150H, V5-tagged (human) (UniProt P52788)
[6] = target: Spermine synthase (SMS) I150Q, V5-tagged (human) (UniProt P52788)
[7] = target: Spermine synthase (SMS) I150R, V5-tagged (human) (UniProt P52788)
[8] = target: Spermine synthase (SMS) V132G, V5-tagged (human) (UniProt P52788)
[9] = target: Spermine synthase (SMS) V132D, V5-tagged (human) (UniProt P52788)
[10] = target: Spermine synthase (SMS) V132E, V5-tagged (human) (UniProt P52788)
[11] = target: Spermine synthase (SMS) V132R, V5-tagged (human) (UniProt P52788)

B1: Spermine synthase (SMS), wild type, V5-tagged (enzyme, UniProt P52788 1-366)
chain: MAAARHSTLDFMLGAKADGETILKGLQSIFQEQGMAESVHTWQDHGYLATYTNKNGSFANLRIYPHGLVLLDLQSYDGDAQGKEEIDSILNKVEERMKELSQDSTGRVKRLPPIVRGGAIDRYWPTADGRLVEYDIDEVVYDEDSPYQNIKILHSKQFGNILILSGDVNLAESDLAYTRAIMGSGKEDYTGKDVLILGGGDGGILCEIVKLKPKMVTMVEIDQMVIDGCKKYMRKTCGDVLDNLKGDCYQVLIEDCIPVLKRYAKEGREFDYVINDLTAVPISTSPEEDSTWEFLRLILDLSMKVLKQDGKYFTQGNCVNLTEALSLYEEQLGRLYCPVEFSKEIVCVPSYLELWVFYTVWKKAKP
binding [1]: binds

B2: Spermine synthase (SMS) I150T, V5-tagged (enzyme, UniProt P52788 1-366)
chain: MAAARHSTLDFMLGAKADGETILKGLQSIFQEQGMAESVHTWQDHGYLATYTNKNGSFANLRIYPHGLVLLDLQSYDGDAQGKEEIDSILNKVEERMKELSQDSTGRVKRLPPIVRGGAIDRYWPTADGRLVEYDIDEVVYDEDSPYQNTKILHSKQFGNILILSGDVNLAESDLAYTRAIMGSGKEDYTGKDVLILGGGDGGILCEIVKLKPKMVTMVEIDQMVIDGCKKYMRKTCGDVLDNLKGDCYQVLIEDCIPVLKRYAKEGREFDYVINDLTAVPISTSPEEDSTWEFLRLILDLSMKVLKQDGKYFTQGNCVNLTEALSLYEEQLGRLYCPVEFSKEIVCVPSYLELWVFYTVWKKAKP
binding [2]: binds

B3: Spermine synthase (SMS) I150D, V5-tagged (enzyme, UniProt P52788 1-366)
chain: MAAARHSTLDFMLGAKADGETILKGLQSIFQEQGMAESVHTWQDHGYLATYTNKNGSFANLRIYPHGLVLLDLQSYDGDAQGKEEIDSILNKVEERMKELSQDSTGRVKRLPPIVRGGAIDRYWPTADGRLVEYDIDEVVYDEDSPYQNDKILHSKQFGNILILSGDVNLAESDLAYTRAIMGSGKEDYTGKDVLILGGGDGGILCEIVKLKPKMVTMVEIDQMVIDGCKKYMRKTCGDVLDNLKGDCYQVLIEDCIPVLKRYAKEGREFDYVINDLTAVPISTSPEEDSTWEFLRLILDLSMKVLKQDGKYFTQGNCVNLTEALSLYEEQLGRLYCPVEFSKEIVCVPSYLELWVFYTVWKKAKP
binding [3]: binds

B4: Spermine synthase (SMS) I150E, V5-tagged (enzyme, UniProt P52788 1-366)
chain: MAAARHSTLDFMLGAKADGETILKGLQSIFQEQGMAESVHTWQDHGYLATYTNKNGSFANLRIYPHGLVLLDLQSYDGDAQGKEEIDSILNKVEERMKELSQDSTGRVKRLPPIVRGGAIDRYWPTADGRLVEYDIDEVVYDEDSPYQNEKILHSKQFGNILILSGDVNLAESDLAYTRAIMGSGKEDYTGKDVLILGGGDGGILCEIVKLKPKMVTMVEIDQMVIDGCKKYMRKTCGDVLDNLKGDCYQVLIEDCIPVLKRYAKEGREFDYVINDLTAVPISTSPEEDSTWEFLRLILDLSMKVLKQDGKYFTQGNCVNLTEALSLYEEQLGRLYCPVEFSKEIVCVPSYLELWVFYTVWKKAKP
binding [4]: binds

B5: Spermine synthase (SMS) I150H, V5-tagged (enzyme, UniProt P52788 1-366)
chain: MAAARHSTLDFMLGAKADGETILKGLQSIFQEQGMAESVHTWQDHGYLATYTNKNGSFANLRIYPHGLVLLDLQSYDGDAQGKEEIDSILNKVEERMKELSQDSTGRVKRLPPIVRGGAIDRYWPTADGRLVEYDIDEVVYDEDSPYQNHKILHSKQFGNILILSGDVNLAESDLAYTRAIMGSGKEDYTGKDVLILGGGDGGILCEIVKLKPKMVTMVEIDQMVIDGCKKYMRKTCGDVLDNLKGDCYQVLIEDCIPVLKRYAKEGREFDYVINDLTAVPISTSPEEDSTWEFLRLILDLSMKVLKQDGKYFTQGNCVNLTEALSLYEEQLGRLYCPVEFSKEIVCVPSYLELWVFYTVWKKAKP
binding [5]: binds

B6: Spermine synthase (SMS) I150Q, V5-tagged (enzyme, UniProt P52788 1-366)
chain: MAAARHSTLDFMLGAKADGETILKGLQSIFQEQGMAESVHTWQDHGYLATYTNKNGSFANLRIYPHGLVLLDLQSYDGDAQGKEEIDSILNKVEERMKELSQDSTGRVKRLPPIVRGGAIDRYWPTADGRLVEYDIDEVVYDEDSPYQNQKILHSKQFGNILILSGDVNLAESDLAYTRAIMGSGKEDYTGKDVLILGGGDGGILCEIVKLKPKMVTMVEIDQMVIDGCKKYMRKTCGDVLDNLKGDCYQVLIEDCIPVLKRYAKEGREFDYVINDLTAVPISTSPEEDSTWEFLRLILDLSMKVLKQDGKYFTQGNCVNLTEALSLYEEQLGRLYCPVEFSKEIVCVPSYLELWVFYTVWKKAKP
binding [6]: binds

B7: Spermine synthase (SMS) I150R, V5-tagged (enzyme, UniProt P52788 1-366)
chain: MAAARHSTLDFMLGAKADGETILKGLQSIFQEQGMAESVHTWQDHGYLATYTNKNGSFANLRIYPHGLVLLDLQSYDGDAQGKEEIDSILNKVEERMKELSQDSTGRVKRLPPIVRGGAIDRYWPTADGRLVEYDIDEVVYDEDSPYQNRKILHSKQFGNILILSGDVNLAESDLAYTRAIMGSGKEDYTGKDVLILGGGDGGILCEIVKLKPKMVTMVEIDQMVIDGCKKYMRKTCGDVLDNLKGDCYQVLIEDCIPVLKRYAKEGREFDYVINDLTAVPISTSPEEDSTWEFLRLILDLSMKVLKQDGKYFTQGNCVNLTEALSLYEEQLGRLYCPVEFSKEIVCVPSYLELWVFYTVWKKAKP
binding [7]: binds

B8: Spermine synthase (SMS) V132G, V5-tagged (enzyme, UniProt P52788 1-366)
chain: MAAARHSTLDFMLGAKADGETILKGLQSIFQEQGMAESVHTWQDHGYLATYTNKNGSFANLRIYPHGLVLLDLQSYDGDAQGKEEIDSILNKVEERMKELSQDSTGRVKRLPPIVRGGAIDRYWPTADGRLGEYDIDEVVYDEDSPYQNIKILHSKQFGNILILSGDVNLAESDLAYTRAIMGSGKEDYTGKDVLILGGGDGGILCEIVKLKPKMVTMVEIDQMVIDGCKKYMRKTCGDVLDNLKGDCYQVLIEDCIPVLKRYAKEGREFDYVINDLTAVPISTSPEEDSTWEFLRLILDLSMKVLKQDGKYFTQGNCVNLTEALSLYEEQLGRLYCPVEFSKEIVCVPSYLELWVFYTVWKKAKP
binding [8]: binds

B9: Spermine synthase (SMS) V132D, V5-tagged (enzyme, UniProt P52788 1-366)
chain: MAAARHSTLDFMLGAKADGETILKGLQSIFQEQGMAESVHTWQDHGYLATYTNKNGSFANLRIYPHGLVLLDLQSYDGDAQGKEEIDSILNKVEERMKELSQDSTGRVKRLPPIVRGGAIDRYWPTADGRLDEYDIDEVVYDEDSPYQNIKILHSKQFGNILILSGDVNLAESDLAYTRAIMGSGKEDYTGKDVLILGGGDGGILCEIVKLKPKMVTMVEIDQMVIDGCKKYMRKTCGDVLDNLKGDCYQVLIEDCIPVLKRYAKEGREFDYVINDLTAVPISTSPEEDSTWEFLRLILDLSMKVLKQDGKYFTQGNCVNLTEALSLYEEQLGRLYCPVEFSKEIVCVPSYLELWVFYTVWKKAKP
binding [9]: binds

B10: Spermine synthase (SMS) V132E, V5-tagged (enzyme, UniProt P52788 1-366)
chain: MAAARHSTLDFMLGAKADGETILKGLQSIFQEQGMAESVHTWQDHGYLATYTNKNGSFANLRIYPHGLVLLDLQSYDGDAQGKEEIDSILNKVEERMKELSQDSTGRVKRLPPIVRGGAIDRYWPTADGRLEEYDIDEVVYDEDSPYQNIKILHSKQFGNILILSGDVNLAESDLAYTRAIMGSGKEDYTGKDVLILGGGDGGILCEIVKLKPKMVTMVEIDQMVIDGCKKYMRKTCGDVLDNLKGDCYQVLIEDCIPVLKRYAKEGREFDYVINDLTAVPISTSPEEDSTWEFLRLILDLSMKVLKQDGKYFTQGNCVNLTEALSLYEEQLGRLYCPVEFSKEIVCVPSYLELWVFYTVWKKAKP
binding [10]: binds

B11: Spermine synthase (SMS) V132R, V5-tagged (enzyme, UniProt P52788 1-366)
chain: MAAARHSTLDFMLGAKADGETILKGLQSIFQEQGMAESVHTWQDHGYLATYTNKNGSFANLRIYPHGLVLLDLQSYDGDAQGKEEIDSILNKVEERMKELSQDSTGRVKRLPPIVRGGAIDRYWPTADGRLREYDIDEVVYDEDSPYQNIKILHSKQFGNILILSGDVNLAESDLAYTRAIMGSGKEDYTGKDVLILGGGDGGILCEIVKLKPKMVTMVEIDQMVIDGCKKYMRKTCGDVLDNLKGDCYQVLIEDCIPVLKRYAKEGREFDYVINDLTAVPISTSPEEDSTWEFLRLILDLSMKVLKQDGKYFTQGNCVNLTEALSLYEEQLGRLYCPVEFSKEIVCVPSYLELWVFYTVWKKAKP
binding [11]: binds
